The campaign covered roughly 350,000 compounds. About 31,000 (8.9%) were called active. The inconclusive results got no clear call from the source; some entries with a clear call stand among them for comparison. Calls follow the shape of the dose curve; as a rule, active = well fitted inhibition curve with a large enough effect; inconclusive = small, poorly fitted or top-dose-only effect; inactive = no such curve, though single readings can be large or run the other way. A potency beside an inconclusive call is a rough fit, not a confirmed value.
biological target: Histone-lysine N-methyltransferase EHMT2 (Homo sapiens) (UniProt Q96KQ7); test: qHTS Assay for Inhibitors of Histone Lysine Methyltransferase G9a; settings: G9a H3K9 monomethylation, AlphaScreen, 2 h; activity, negative = inhibition: at 59 µM (top of the series) unless noted; also: nearly all actives have a fitted effect of over 75% in size
Outline: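 G9a (20 nM) preincubated 15 min RT with compounds, then 500 nM biotinylated H3K9 peptide and 20 uM SAM added; 2 h RT reaction. Monomethyl-H3K9 product detected by AlphaScreen with anti-H3K9me1 antibody, streptavidin donor and anti-rabbit IgG acceptor beads.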
% is scaled to controls: 0 for no effect and ±100 for the full control effect; potency is read from the fitted curve at half-maximal effect; tags tell the direction and shape of the fitted curve.

Chain of UniProt Q96KQ7 (Q96KQ7 whole entry, looked up): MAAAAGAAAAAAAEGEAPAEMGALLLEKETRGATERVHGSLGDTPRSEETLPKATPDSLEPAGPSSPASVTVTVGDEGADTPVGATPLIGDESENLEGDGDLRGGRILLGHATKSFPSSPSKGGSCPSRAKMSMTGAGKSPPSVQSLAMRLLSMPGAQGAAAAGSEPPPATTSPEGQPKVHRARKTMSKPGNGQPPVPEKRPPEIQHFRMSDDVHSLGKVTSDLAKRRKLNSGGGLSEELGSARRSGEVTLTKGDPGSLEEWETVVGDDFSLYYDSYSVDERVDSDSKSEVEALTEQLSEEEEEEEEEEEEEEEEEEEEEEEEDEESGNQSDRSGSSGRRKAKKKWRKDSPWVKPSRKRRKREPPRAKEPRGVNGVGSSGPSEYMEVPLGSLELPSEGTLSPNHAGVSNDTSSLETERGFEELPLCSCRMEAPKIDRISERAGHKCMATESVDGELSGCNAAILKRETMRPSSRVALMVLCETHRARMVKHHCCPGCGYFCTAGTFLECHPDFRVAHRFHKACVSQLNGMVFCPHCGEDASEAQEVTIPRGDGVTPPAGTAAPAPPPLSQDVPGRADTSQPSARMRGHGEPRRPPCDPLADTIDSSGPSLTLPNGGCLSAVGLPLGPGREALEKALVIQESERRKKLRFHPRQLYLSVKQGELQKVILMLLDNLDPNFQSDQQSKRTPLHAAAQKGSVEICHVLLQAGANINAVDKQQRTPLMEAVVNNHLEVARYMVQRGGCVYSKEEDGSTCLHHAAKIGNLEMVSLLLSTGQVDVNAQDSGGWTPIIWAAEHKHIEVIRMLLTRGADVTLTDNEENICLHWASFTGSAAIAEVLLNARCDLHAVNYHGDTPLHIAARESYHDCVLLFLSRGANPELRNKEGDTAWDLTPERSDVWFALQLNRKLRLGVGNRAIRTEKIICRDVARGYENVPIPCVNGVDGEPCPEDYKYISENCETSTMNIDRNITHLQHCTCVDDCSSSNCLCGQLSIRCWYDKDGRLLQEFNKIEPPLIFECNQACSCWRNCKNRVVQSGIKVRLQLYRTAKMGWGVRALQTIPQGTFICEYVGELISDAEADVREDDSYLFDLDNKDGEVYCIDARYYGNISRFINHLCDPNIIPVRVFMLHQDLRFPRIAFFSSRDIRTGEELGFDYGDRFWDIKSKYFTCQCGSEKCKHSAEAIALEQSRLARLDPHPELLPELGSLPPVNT

Question: For COc1ccccc1CC(=O)N(CCC1=CCCCC1)c1c(N)n(Cc2ccccc2)c(=O)[nH]c1=O, which Potency is on record?
Answer: inconclusive: 2.24 µM [inhibitor, partial curve, poor fit]

Question: With CCOc1ccc(-n2c(=S)sc3c(=O)[nH]c(SCC(=O)N4CCC(C)CC4)nc32)cc1 as the compound, how does the Potency read?
Answer: inconclusive: 56.2 µM [inhibitor, partial curve, poor fit]

Question: Which Potency does the source give for CC1CC(=O)N(c2ccc(NCc3ccccc3Cl)c([N+](=O)[O-])c2)C1=O (centres undefined) here?
Answer: inconclusive: 79.4 µM [inhibitor, single point]

Question: How did the Potency turn out when CCCC(=O)Nc1ccc(Nc2ccccc2)cc1 was run?
Answer: inconclusive: 39.8 µM [inhibitor, single point]

Question: How did the Potency turn out when COc1cc(OC)cc(-c2nnc(NC(=O)CCS(=O)(=O)c3ccccc3)o2)c1 was run?
Answer: inconclusive: 89.1 µM [inhibitor, single point]

Question: CCN(CC)CCn1c2c(c(SCC(=O)Nc3nc4ccccc4s3)nc1=O)CCC2 was tested. Which Potency did it give?
Answer: inconclusive: 89.1 µM [inhibitor, single point]

Question: CNC(=S)N1C2CCCC1CC(NC(=O)c1ccc(F)cc1)C2 (centres undefined) was tested. Which “activity, negative = inhibition” value did it give?
Answer: inactive: -23.4% [at 102 µM]

Question: CC1CCCCN1C(=O)Cn1c(SCC(=O)N(C)c2ccccc2)nc2ccccc21 (centres undefined) was tested. Which activity, negative = inhibition did it give?
Answer: inactive: -12% [at 12.7 µM]

Question: For CC(Sc1ccc(Cl)cc1)C(=O)NNC(=O)c1ccccc1O (centres undefined), which “activity, negative = inhibition” value is on record?
Answer: inactive: 5.75% [at 102 µM]

Question: Which “activity, negative = inhibition” value does the source give for CCOC(=O)C1=C(C)N(C)C(C)=C(C(=O)OCC)C1c1ccsc1 here?
Answer: inactive: 16% [at 102 µM]

Question: Which Potency does the source give for C=CCCC(=O)Nc1nc(C)c(-c2csc(Nc3cccc(OC)c3)n2)s1 here?
Answer: inconclusive: 28.2 µM [inhibitor, single point]

Question: Cc1ccc(OCCCCn2ccnc2C)c(C)c1 was tested. Which Potency did it give?
Answer: active: 2 µM

Question: With COC(=O)c1ccccc1NC(=S)NC(=O)COc1ccccc1Cl as the compound, how does the Potency read?
Answer: inconclusive: 8.91 µM [inhibitor, partial curve, poor fit]

Question: How did the “activity, negative = inhibition” value turn out when CN1C(=O)C(O)(c2sc(N)nc2-c2ccccc2)c2ccccc21 (centres undefined) was run?
Answer: inactive: -16.9% [at 102 µM]

Question: How did the “activity, negative = inhibition” value turn out when O=C(Cn1nc2c(cc1=O)CCCC2)Nc1ccccc1C(F)(F)F was run?
Answer: inactive: 8.44%

Question: For Cc1nnc(-c2cccc(Br)c2)c2cn(-c3ccccc3)nc12, which “activity, negative = inhibition” value is on record?
Answer: inactive: 8.03% [at 102 µM]

Question: For CCOc1ccccc1CNS(=O)(=O)c1ccc(-c2coc(C)n2)cc1, which “activity, negative = inhibition” value is on record?
Answer: inactive: 1.89%

Question: Cc1cccc(C(c2sc3nc(-c4ccco4)nn3c2O)N2CCN(c3ccccc3)CC2)c1 (centres undefined) was tested. Which Potency did it give?
Answer: inconclusive: 14.1 µM [inhibitor, partial curve, poor fit]

Question: How did the Potency turn out when OC(CN1CCCCC1)Cn1c2ccc(Cl)cc2c2cc(Cl)ccc21 (centres undefined) was run?
Answer: inconclusive: 25.1 µM [inhibitor, full curve]

Question: For CCC(C)c1ccc(OCCn2ccnc2)cc1 (centres undefined), which Potency is on record?
Answer: inconclusive: 35.5 µM [inhibitor, single point]

Question: For COc1ccc(C[C@H]2CN3C(=NC[C@@H]3Cc3ccc(O)cc3)N2CCNC(=O)c2ccc(C)c(Br)c2)cc1, which activity, negative = inhibition is on record?
Answer: inconclusive: -80.1% [inhibitor]

Question: CC1=C(C(=O)OCC(C)C)C(c2cccs2)NC(=S)N1 (centres undefined) was tested. Which Potency did it give?
Answer: inconclusive: 44.7 µM [inhibitor, partial curve, poor fit]

Question: How did the Potency turn out when COc1ccc(N=C2SC(CC(=O)Nc3ccccc3)C(=O)N2Cc2ccco2)cc1 (centres undefined) was run?
Answer: inconclusive: 79.4 µM [inhibitor, single point]

Question: Which Potency does the source give for O=c1sc(/C=N/Nc2ccccc2)c(Cl)n1Cc1ccccc1 here?
Answer: active: 14.1 µM

Question: Which Potency does the source give for CCCc1ccc(C2Sc3ccccc3NC3=C2C(=O)c2ccccc23)cc1 (centres undefined) here?
Answer: active: 7.94 µM

Question: Which Potency does the source give for O=C(CSc1n[nH]c(-c2ccncc2)n1)NC1CCS(=O)(=O)C1 (centres undefined) here?
Answer: inconclusive: 28.2 µM [inhibitor, partial curve, poor fit]

Question: O=C(O)c1nccnc1C(=O)Nc1ccccc1N1CCOCC1 was tested. Which Potency did it give?
Answer: inconclusive: 70.8 µM [inhibitor, single point]

Question: For COC(=O)CN1C(=S)N(c2ccc(OC)cc2)C(=O)C1CC(=O)Nc1ccc(F)cc1 (centres undefined), which Potency is on record?
Answer: inconclusive: 56.2 µM [inhibitor, partial curve, poor fit]

Question: With CC1CC(=O)N(c2ccc(NCCc3ccc(O)cc3)c([N+](=O)[O-])c2)C1=O (centres undefined) as the compound, how does the Potency read?
Answer: inconclusive: 79.4 µM [inhibitor, single point]

Question: How did the Potency turn out when COc1ccc(NC(=O)N2CCOCC2)cc1 was run?
Answer: inconclusive: 100 µM [inhibitor, single point]

Question: How did the activity, negative = inhibition turn out when COc1ccccc1C(=O)Nc1nc(-c2ccc(S(=O)(=O)N3CCOCC3)cc2)cs1 was run?
Answer: inactive: 14.6% [at 12.7 µM]

Question: Which Potency does the source give for COc1cc2c(cc1OC)CN(Cc1cc(=O)oc3cc(C)c(Cl)cc13)CC2 here?
Answer: active: 10 µM

Question: Cc1ccc(OCc2nnc(SCC(=O)c3ccccc3)n2-c2ccccc2)cc1 was tested. Which Potency did it give?
Answer: inconclusive: 31.6 µM [inhibitor, single point]

Question: CNc1ncnc2c1ncn2[C@@H]1O[C@H](COP(=O)(O)O)[C@@H](O)[C@H]1O was tested. Which “activity, negative = inhibition” value did it give?
Answer: inactive: 32.3%

Question: How did the “activity, negative = inhibition” value turn out when COc1cc2[nH]c(=S)nc(NCc3ccc(C)cc3)c2cc1OC was run?
Answer: inactive: -14.7% [at 102 µM]

Question: For CCN(CC)S(=O)(=O)c1ccc(N2CCOCC2)c(NC(=O)CC23CC4CC(CC(Br)(C4)C2)C3)c1, which Potency is on record?
Answer: inconclusive: 25.1 µM [inhibitor, single point]

Question: Which “activity, negative = inhibition” value does the source give for Cc1ccc(C)c(N2CCN(CCCNC(=O)Cn3ncc4c5ccccc5n(C)c4c3=O)CC2)c1 here?
Answer: inactive: -1.05%

Question: For CNC(=S)Nn1cnc2ccccc21, which Potency is on record?
Answer: inconclusive: 89.1 µM [inhibitor, single point]

Question: For CCOc1ccc(C2Oc3nc(SC)nnc3-c3ccccc3N2C(C)=O)cc1OC (centres undefined), which Potency is on record?
Answer: inconclusive: 0.794 µM [inhibitor, partial curve, poor fit]

Question: For COc1cc(C(=O)NC(=S)NNC(=O)[C@H]2C[C@@H]2c2ccccc2)cc(OC)c1OC, which Potency is on record?
Answer: active: 39.8 µM

Question: How did the Potency turn out when COC(=O)c1ccc(OCCN2C3=NCCN3c3ccccc32)cc1 was run?
Answer: inconclusive: 0.316 µM [inhibitor, full curve, poor fit]

Question: How did the Potency turn out when O=S(=O)(c1ccccc1)c1nc(-c2cccs2)oc1SCc1ccccc1F was run?
Answer: inconclusive: 31.6 µM [inhibitor, single point]

Question: With O=C(C1=C[C@H](C2CCCCC2)C[C@H](OCCCCO)O1)N1CCN(Cc2ccccc2)CC1 as the compound, how does the activity, negative = inhibition read?
Answer: inconclusive: -68.3% [inhibitor]

Question: With CCCS(=O)(=O)c1ncc(Cl)c(C(=O)Nc2ccc(S(=O)(=O)Nc3ncccn3)cc2)n1 as the compound, how does the Potency read?
Answer: active: 17.8 µM
